# Test results as given in the supplement of paper PMC12217912.
# The other results are listed elsewhere or left out. Sequences were assembled here from the parent chain. Values near 0.05 are background.
# B1: TEV protease; numbered along this chain (parent)
# chain: MGESLFKGPRDYNPISSSICHLTNESDGHTTSLYGIGFGPFIITNKHLFRRNNGTLVVQSLHGVFKVKDTTTLQQHLVDGRDMIIIRMPKDFPPFPQKLKFREPQREERICLVTTNFQTKSMSSMVSDTSCTFPSGDGIFWKHWIQTKDGQCGSPLVSTRDGFIVGIHSASNFTNTNNYFTSVPKNFMELLTNQEAQQWVSGWRLNADSVLWGGHKVFMVKPEEPFQPVKEATQL
# Variants of: B1
# Test: raw area under fraction-flipped curve 0-4 h after induction (AUC4h, not background-subtracted), DNA-recorder readout of cleavage of the substrate (dimensionless); higher = more cleavage of the substrate by the protease variant
# Conditions: temperature: 34 °C; time window: 0-4 h after rhamnose induction
# Experimental: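 In vivo DNA recorder in E. coli TOP10(DE3) ΔrhaA at 34 °C. Each TEVp single-site mutant (parent TEVp 0) is paired with a single-site variant of the 7-mer TEVs (canonical ENLYFQ|S). The substrate sits between flexible linkers in a Bxb1-sfGFP-TEVs-SsrA fusion, so cleavage stabilises Bxb1 and speeds flipping of a recombination array, read by NGS. The value is the raw area under the fraction-flipped curve over 0-4 h after rhamnose induction (AUC4h), with ≥20 reads per time point. It is not background-subtracted; inactive controls average about 0.047.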
# 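Note: Bxb1 expression induced with 0.2% (w/v) L-rhamnose at OD600 near 0.5, cultures sampled hourly, flipped fraction per protease–substrate barcode pair counted by paired-end Illumina sequencing.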
Variant,area with substrate DNLYFQS,area with substrate GNLYFQS,area with substrate HNLYFQS,area with substrate MNLYFQS,area with substrate PNLYFQS,area with substrate QNLYFQS,area with substrate TNLYFQS,area with substrate VNLYFQS,area with substrate WNLYFQS,area with substrate KNLYFQS
MGESLFKGPRDYNPISSSICHLTNESDGHTTSLYGIGFGPFIITNKHLFRRNNGTLVVQSLHGVFKVKDTTTLQQHLVDGRDMIIIRMPKDFPPFPQKLKFREPQCEERICLVTTNFQTKSMSSMVSDTSCTFPSGDGIFWKHWIQTKDGQCGSPLVSTRDGFIVGIHSASNFTNTNNYFTSVPKNFMELLTNQEAQQWVSGWRLNADSVLWGGHKVFMVKPEEPFQPVKEATQL [R106C],0.109,0.0519,0.0581,0.0754,0.0548,0.076,0.0641,0.0757,0.062,
MGESLFKGPRDYNPISSSICHLTNESDGHTTSLYGIGFGPFIITNKHLFRRNNGTLVVQSLHGVFKVKDTTTLQQHLVDGRDMIIIRMPKDFPPFPQKLKFRNPQREERICLVTTNFQTKSMSSMVSDTSCTFPSGDGIFWKHWIQTKDGQCGSPLVSTRDGFIVGIHSASNFTNTNNYFTSVPKNFMELLTNQEAQQWVSGWRLNADSVLWGGHKVFMVKPEEPFQPVKEATQL [E103N],0.0592,0.0645,,,0.0282,,,,,0.0663
MGESLFKGPRDYNPISSSICHLTNESDGHTTSLYGIGFGPFIITNKHLFRRNNGTLVVQSLHGVFKVKDTTTLQQHLVDGRDMIIIRMPKDFPHFPQKLKFREPQREERICLVTTNFQTKSMSSMVSDTSCTFPSGDGIFWKHWIQTKDGQCGSPLVSTRDGFIVGIHSASNFTNTNNYFTSVPKNFMELLTNQEAQQWVSGWRLNADSVLWGGHKVFMVKPEEPFQPVKEATQL [P94H],0.0851,0.0588,0.0609,0.0638,0.0835,,0.083,,0.0574,0.0683
MGESLFKGPRDYNPISSSICHLTNESDGHTTSLYGIGFGPFIITNKHLFRRNNGTLVVQSLHGVFKVKDTTTLQQHLVDGRDMIIIRMPKDFPLFPQKLKFREPQREERICLVTTNFQTKSMSSMVSDTSCTFPSGDGIFWKHWIQTKDGQCGSPLVSTRDGFIVGIHSASNFTNTNNYFTSVPKNFMELLTNQEAQQWVSGWRLNADSVLWGGHKVFMVKPEEPFQPVKEATQL [P94L],0.0775,,,,,,0.0922,,,
MGESLFKGPRDYNPISSSICHLTNESDGHTTSLYGIGFGPFIITNKHLFRRNNGTLVVQSLHGVFKVKDTTTLQQHLVDGRDMIIIRMPKDFPPFPQKLKAREPQREERICLVTTNFQTKSMSSMVSDTSCTFPSGDGIFWKHWIQTKDGQCGSPLVSTRDGFIVGIHSASNFTNTNNYFTSVPKNFMELLTNQEAQQWVSGWRLNADSVLWGGHKVFMVKPEEPFQPVKEATQL [F101A],0.0666,,,,0.0651,,,,0.0462,
MGESLFKGPRDYNPISSSICHLTNESDGHTTSLYGIGFGPFIITNKHLFRRNNGTLVVQSLHGVFKVKDTTTLQQHLVDGRDMIIIRMPKDFPPFPQKLKMREPQREERICLVTTNFQTKSMSSMVSDTSCTFPSGDGIFWKHWIQTKDGQCGSPLVSTRDGFIVGIHSASNFTNTNNYFTSVPKNFMELLTNQEAQQWVSGWRLNADSVLWGGHKVFMVKPEEPFQPVKEATQL [F101M],0.083,,0.0624,0.0585,0.0594,0.0683,0.0632,,0.0517,0.0657
MGESLFKGPRDYNPISSSICHLTNESDGHTTSLYGIGFGPFIITNKHLFRRNNGTLVVQSLHGVFKVKDTTTLQQHLVDGRDMIIIRMPKDFPPFPQKLKGREPQREERICLVTTNFQTKSMSSMVSDTSCTFPSGDGIFWKHWIQTKDGQCGSPLVSTRDGFIVGIHSASNFTNTNNYFTSVPKNFMELLTNQEAQQWVSGWRLNADSVLWGGHKVFMVKPEEPFQPVKEATQL [F101G],0.0565,,,0.0472,,,,,0.0539,
MGESLFKGPRDYNPISSSICHLTNESDGHTTSLYGIGFGPFIITNKHLFRRNNGTLVVQSLHGVFKVKDTTTLQQHLVDGRDMIIIRMPKDFPPFPQKLKPREPQREERICLVTTNFQTKSMSSMVSDTSCTFPSGDGIFWKHWIQTKDGQCGSPLVSTRDGFIVGIHSASNFTNTNNYFTSVPKNFMELLTNQEAQQWVSGWRLNADSVLWGGHKVFMVKPEEPFQPVKEATQL [F101P],0.0502,0.057,0.0368,0.0416,0.0536,,,0.0387,0.049,0.0399
MGESLFKGPRDYNPISSSICHLTNESDGHTTSLYGIGFGPFIITNKHLFRRNNGTLVVQSLHGVFKVKDTTTLQQHLVDGRDMIIIRMPKDFPPFPQKLKFSEPQREERICLVTTNFQTKSMSSMVSDTSCTFPSGDGIFWKHWIQTKDGQCGSPLVSTRDGFIVGIHSASNFTNTNNYFTSVPKNFMELLTNQEAQQWVSGWRLNADSVLWGGHKVFMVKPEEPFQPVKEATQL [R102S],0.0559,,0.0543,,0.0569,0.0491,0.0459,0.0649,0.0513,0.0462
MGESLFKGPRDYNPISSSICHLTNESDGHTTSLYGIGFGPFIITNKHLFRRNNGTLVVQSLHGVFKVKDTTTLQQHLVDGRDMIIIRMPEDFPPFPQKLKFREPQREERICLVTTNFQTKSMSSMVSDTSCTFPSGDGIFWKHWIQTKDGQCGSPLVSTRDGFIVGIHSASNFTNTNNYFTSVPKNFMELLTNQEAQQWVSGWRLNADSVLWGGHKVFMVKPEEPFQPVKEATQL [K90E],0.11,,0.0525,,,,,,0.0585,0.0678
MGESLFKGPRDYNPISSSICHLTNESDGHTTSLYGIGFGPFIITNKHLFRRNNGTLVVQSLHGVFKVKDTTTLQQHLVDGRDMIIIRMPKDFPPFDQKLKFREPQREERICLVTTNFQTKSMSSMVSDTSCTFPSGDGIFWKHWIQTKDGQCGSPLVSTRDGFIVGIHSASNFTNTNNYFTSVPKNFMELLTNQEAQQWVSGWRLNADSVLWGGHKVFMVKPEEPFQPVKEATQL [P96D],0.0893,,0.079,0.0751,,,,,0.0555,0.0337

# Same assay, conditions: temperature: 34 °C; time window: 0-4 h after rhamnose induction
Variant,area with substrate INLYFQS,area with substrate YNLYFQS,area with substrate FNLYFQS,area with substrate RNLYFQS,area with substrate SNLYFQS,area with substrate LNLYFQS,area with substrate NNLYFQS
MGESLFKGPRDYNPISSSICHLTNESDGHTTSLYGIGFGPFIITNKHLFRRNNGTLVVQSLHGVFKVKDTTTLQQHLVDGRDMIIIRMPKDFPHFPQKLKFREPQREERICLVTTNFQTKSMSSMVSDTSCTFPSGDGIFWKHWIQTKDGQCGSPLVSTRDGFIVGIHSASNFTNTNNYFTSVPKNFMELLTNQEAQQWVSGWRLNADSVLWGGHKVFMVKPEEPFQPVKEATQL [P94H],0.0621,0.0552,,,,,
MGESLFKGPRDYNPISSSICHLTNESDGHTTSLYGIGFGPFIITNKHLFRRNNGTLVVQSLHGVFKVKDTTTLQQHLVDGRDMIIIRMPKDFPLFPQKLKFREPQREERICLVTTNFQTKSMSSMVSDTSCTFPSGDGIFWKHWIQTKDGQCGSPLVSTRDGFIVGIHSASNFTNTNNYFTSVPKNFMELLTNQEAQQWVSGWRLNADSVLWGGHKVFMVKPEEPFQPVKEATQL [P94L],,0.0637,,,,,
MGESLFKGPRDYNPISSSICHLTNESDGHTTSLYGIGFGPFIITNKHLFRRNNGTLVVQSLHGVFKVKDTTTLQQHLVDGRDMIIIRMPKDFPPFPQKLKAREPQREERICLVTTNFQTKSMSSMVSDTSCTFPSGDGIFWKHWIQTKDGQCGSPLVSTRDGFIVGIHSASNFTNTNNYFTSVPKNFMELLTNQEAQQWVSGWRLNADSVLWGGHKVFMVKPEEPFQPVKEATQL [F101A],0.0468,,0.0567,,,,
MGESLFKGPRDYNPISSSICHLTNESDGHTTSLYGIGFGPFIITNKHLFRRNNGTLVVQSLHGVFKVKDTTTLQQHLVDGRDMIIIRMPKDFPPFPQKLKMREPQREERICLVTTNFQTKSMSSMVSDTSCTFPSGDGIFWKHWIQTKDGQCGSPLVSTRDGFIVGIHSASNFTNTNNYFTSVPKNFMELLTNQEAQQWVSGWRLNADSVLWGGHKVFMVKPEEPFQPVKEATQL [F101M],,0.0572,0.0612,0.0701,0.0534,,
MGESLFKGPRDYNPISSSICHLTNESDGHTTSLYGIGFGPFIITNKHLFRRNNGTLVVQSLHGVFKVKDTTTLQQHLVDGRDMIIIRMPKDFPPFPQKLKGREPQREERICLVTTNFQTKSMSSMVSDTSCTFPSGDGIFWKHWIQTKDGQCGSPLVSTRDGFIVGIHSASNFTNTNNYFTSVPKNFMELLTNQEAQQWVSGWRLNADSVLWGGHKVFMVKPEEPFQPVKEATQL [F101G],0.0508,,0.0502,,0.0388,,
MGESLFKGPRDYNPISSSICHLTNESDGHTTSLYGIGFGPFIITNKHLFRRNNGTLVVQSLHGVFKVKDTTTLQQHLVDGRDMIIIRMPKDFPPFPQKLKPREPQREERICLVTTNFQTKSMSSMVSDTSCTFPSGDGIFWKHWIQTKDGQCGSPLVSTRDGFIVGIHSASNFTNTNNYFTSVPKNFMELLTNQEAQQWVSGWRLNADSVLWGGHKVFMVKPEEPFQPVKEATQL [F101P],,0.0512,0.0531,,,,
MGESLFKGPRDYNPISSSICHLTNESDGHTTSLYGIGFGPFIITNKHLFRRNNGTLVVQSLHGVFKVKDTTTLQQHLVDGRDMIIIRMPKDFPPFPQKLKFSEPQREERICLVTTNFQTKSMSSMVSDTSCTFPSGDGIFWKHWIQTKDGQCGSPLVSTRDGFIVGIHSASNFTNTNNYFTSVPKNFMELLTNQEAQQWVSGWRLNADSVLWGGHKVFMVKPEEPFQPVKEATQL [R102S],0.052,0.0412,0.0413,0.0463,0.0527,,
MGESLFKGPRDYNPISSSICHLTNESDGHTTSLYGIGFGPFIITNKHLFRRNNGTLVVQSLHGVFKVKDTTTLQQHLVDGRDMIIIRMPEDFPPFPQKLKFREPQREERICLVTTNFQTKSMSSMVSDTSCTFPSGDGIFWKHWIQTKDGQCGSPLVSTRDGFIVGIHSASNFTNTNNYFTSVPKNFMELLTNQEAQQWVSGWRLNADSVLWGGHKVFMVKPEEPFQPVKEATQL [K90E],,,,,,0.0634,
MGESLFKGPRDYNPISSSICHLTNESDGHTTSLYGIGFGPFIITNKHLFRRNNGTLVVQSLHGVFKVKDTTTLQQHLVDGRDMIIIRMPKDFPPFDQKLKFREPQREERICLVTTNFQTKSMSSMVSDTSCTFPSGDGIFWKHWIQTKDGQCGSPLVSTRDGFIVGIHSASNFTNTNNYFTSVPKNFMELLTNQEAQQWVSGWRLNADSVLWGGHKVFMVKPEEPFQPVKEATQL [P96D],,,,,0.0661,0.0925,0.0772
